Measurements taken from PubChem BioAssay AID686970 (National Center for Advancing Translational Sciences (NCATS), 2013).
Several values for one entry are separate records, joined by “and”; a condition that tells them apart may be missing. Equal entries are not always repeated. The campaign covered roughly 360,000 compounds. About 6,000 (1.7%) were called active. Inconclusive results, whose numbers are uncertain, are shown with a selection of clear calls. Calls follow the shape of the dose curve; as a rule, active = well fitted cell-killing curve with a large enough effect; inconclusive = small, poorly fitted or top-dose-only effect, or effect the other way; inactive = flat fitted curve, though single readings scatter. No potency is given beside an inconclusive call; the fits are too rough.

Assay: qHTS for induction of synthetic lethality in tumor cells producing 2HG: qHTS for the HT-1080-NT fibrosarcoma cell line;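 also: NT is the 2HG producing partner of a matched IDH1 knockdown line; nearly all actives have a fitted effect of over 55% in size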;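 as to activity, negative = less viability: 0% = DMSO-treated cells and -100% = media-only wells without cells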
Conditions: HT-1080-NT fibrosarcoma viability, CellTiter-Glo ATP luminescence, 48 h; activity, negative = less viability: at 46.1 µM (top of the series)
Procedure, shortened: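 HT-1080-NT fibrosarcoma cells (2HG-overproducing), 750 cells/well in RPMI with 5% FBS, dosed after 2 h and incubated 48 h at 37C. CellTiter-Glo luminescence normalized to DMSO and no-cell wells; concentration-response curves fitted and classed.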
Potency is read from the fitted curve at half-maximal effect; tags tell the direction and shape of the fitted curve.

Compound	Potency	activity, negative = less viability
COC(=O)C1=C(c2ccc(-c3ccccc3)c(F)c2)C[C@@H]2CC[C@H]1N2C(=O)NCc1ccco1	inactive	
COc1ccc(-c2ccc3c(c2)CNCc2cnnn2-3)cc1	inconclusive [rising, single point]	
CC(C)CCOP(=O)(c1ccc(N(C)C)cc1)C(O)c1ccc(Cl)cc1Cl (centres undefined)	active: 23.1 µM	
O=C(c1ccc2c(c1)ncn2C1CCCCCC1)N1CCC2(CC1)OCCO2	inconclusive [cytotoxic, single point]	
CCOC(=O)c1cc2cc(OC)ccc2n1C1CCN(Cc2ccccc2)CC1	inconclusive [cytotoxic, single point]	
Nc1nonc1C(=O)N/N=C/c1ccc([N+](=O)[O-])o1	inconclusive [cytotoxic, single point]	
CC(=O)O[C@@]12CO[C@@H]1C[C@@H](O)[C@@]1(C)C(=O)[C@H](O)C3=C(C)[C@@H](OC(=O)[C@H](O)[C@@H](NC(=O)c4ccccc4)c4ccccc4)C[C@@](O)([C@@H](OC(=O)c4ccccc4)C12)C3(C)C (some centres undefined)	active: 0.206 µM	
CCOC(=O)c1[nH]c2ccc(OC)cc2c1C(SCC(=O)O)c1ccc(C(F)(F)F)cc1 (centres undefined)	inconclusive [cytotoxic, single point]	
CC(=O)OC1C(O)C(C)OC(OC2C(OC(=O)C3CCC4C(C3)OC3(CC(OC(=O)/C=C/c5ccccc5)C(C)CO3)C43CO3)OC(C)C(O)C2OC(C)=O)C1O (centres undefined)	active: 0.13 µM	
CC1=CC2/C=C(\C)CCC(O)C(O)/C=C/C(=O)C23C(=O)NC(CC(C)C)C3C1C (centres undefined)	active: 11.6 µM	
CCc1nc2ccc(C(=O)N3CCN(C(=O)c4ccco4)CC3)cn2c1N(C)Cc1ccc(OC)cc1	inconclusive [rising, single point]	
O=c1[nH]c(=O)n(-c2ccccc2)c(O)c1/C=C1/C(c2ccccc2)=Nc2ccccc21	active: 4.11 µM	
CCN1C[C@]2(C)CC[C@H](O)[C@]34C1[C@H](C[C@H]23)[C@@]1(O)C[C@H](OC)[C@H]2C[C@@H]4[C@@H]1C2O (some centres undefined)		inconclusive: 0.159%
O=C(Cn1ccc2ccccc2c1=O)NCC(=O)N1CCC2(CC1)OCCO2	inconclusive [rising, single point]	
Brc1ccc(-[n+]2c(-c3ccccc3)cc(-c3ccccc3)cc2-c2ccccc2)cc1	active: 16.4 µM	
Cc1ccc2c(c1)C1CN(C)CCC1N2C(=O)Nc1ccc(Cl)cc1 (centres undefined)	inconclusive [cytotoxic, single point]	
FC(F)(F)c1ccc(CSc2ccccn2)cc1	inconclusive [rising, single point]	
O=C1NCN(c2ccccc2)C12CCN(C(c1cc3ccccc3o1)c1nnnn1C1CCCC1)CC2 (centres undefined)	inconclusive [cytotoxic, single point]	
Oc1ccc(Cl)c(Cl)c1Cl	inactive	
CCC(=NCCN1CCCCC1)c1c(O)n(C)c(=O)n(C)c1=O	inactive	
O=c1c2ccccc2nc(-c2ccccc2)n1-c1ccc(O)cc1	inactive	
CC(=O)[C@@]1(O)CC[C@H]2[C@@H]3CC=C4C[C@@H](O)CC[C@]4(C)[C@H]3CC[C@@]21C	inconclusive [rising, full curve, poor fit]	
COc1ccc(-n2nnnc2C(C2CC2)N2CCC(n3c(=O)[nH]c4ccccc43)CC2)cc1 (centres undefined)	inconclusive [cytotoxic, single point]	

Compound	Potency	activity, negative = less viability
CN1CCCCC1Cc1ccccc1 (centres undefined)	inconclusive [rising, single point]	
COc1ccc2c(c1)NP(=S)(c1ccccc1)N2C (centres undefined)	inactive	
O=P(/C(=N/O)N1CCCCC1)(N1CCOCC1)N1CCOCC1	inactive	
CCC(=O)Nc1ccc(Cl)c(Cl)c1	inactive	
COc1cccc(OC)c1CN1CCCC(C(=O)c2cccc(Cl)c2)C1 (centres undefined)	inactive	
O=[N+]([O-])c1ccc(Cl)c([N+](=O)[O-])c1	active: 14.1 µM and active: 5.17 µM	
Cc1ccc(-n2c(O)c(C=NCCN3CCOCC3)c(=O)[nH]c2=O)cc1		inconclusive: 32%
COC(=O)C1=C(c2ccc(Cl)c(C(F)(F)F)c2)C[C@@H]2CC[C@H]1N2C(=O)N1CCC(O)(c2ccc(Cl)cc2)CC1	inconclusive [cytotoxic, single point]	
CC1=C(N2CC2)C(=O)C(CO)=C(N2CC2)C1=O	inconclusive [cytotoxic, full curve]	
CC(C)Oc1cccnc1N(C)C1CCN(Cc2ccccc2)CC1	inactive	
COC[C@H]1OC(=O)c2coc3c2[C@@]1(C)C1=C(C3=O)C2CCC(=O)[C@@]2(C)C[C@H]1OC(C)=O (some centres undefined)	inconclusive [cytotoxic, single point]	
CC(=O)OC1CCC2(C)C(CC(=O)C3C2CCC2(C)C(OC(C)=O)CCC32)C1 (centres undefined)	inactive	
CCCCn1nnnc1C(c1ccc(OC)cc1)N1CCC2(CC1)C(=O)NCN2c1ccccc1 (centres undefined)	inconclusive [cytotoxic, single point]	
CC1=Nc2ccccc2/C1=C/c1c(O)[nH]c(=O)[nH]c1=O	inactive	
c1ccc2c(c1)[IH]c1ccccc1-2	active: 0.461 µM	
O=c1[nH]c2ccccc2n1C1CCN(C(CCc2ccccc2)c2nnnn2-c2ccc3c(c2)OCCO3)CC1 (centres undefined)	active: 13 µM	
CCOC(=O)c1ccccc1OC(=O)NNc1ccccc1	active: 5.8 µM	
COc1ccc(C(c2nnnn2-c2ccc(OC)cc2)N2CCC(n3c(=O)[nH]c4ccccc43)CC2)cc1 (centres undefined)	inconclusive [cytotoxic, single point]	
Cc1cccc(C)c1-n1nnnc1C(c1cccs1)N1CCC2(CC1)C(=O)NCN2c1ccccc1 (centres undefined)	inconclusive [cytotoxic, single point]	
CC(=O)Nc1cnc(-c2ccccc2O)cn1	inconclusive [cytotoxic, single point]	
C[C@@H]1CN([C@@H](C)CO)C(=O)CCCn2nncc2CO[C@@H]1CN(C)C(=O)Oc1ccc2ccccc2c1	inactive	
CCOc1ccc(NC(=O)c2ccc(NC(=O)COC(=O)Cc3ccccc3)cc2)cc1	inactive	
N=C(N)c1c(O)n(C2CCCCC2)c(=O)n(C2CCCCC2)c1=O	active: 16.4 µM	

Compound	Potency	activity, negative = less viability
CNc1cc(Cl)c2nonc2c1[N+](=O)[O-]	active: 3.26 µM	
CCCNC(=O)N1[C@H]2CC[C@@H]1C(C(=O)OC)=C(c1cc3ccccc3o1)C2	inactive	
CCCCCSc1cc(OC)c(CCN(C)C)cc1OC	inconclusive [cytotoxic, single point]	
C/C(=N\N1CCCCCC1)c1c(O)n(-c2ccc(Cl)cc2)c(=O)[nH]c1=O	inconclusive [rising, single point]	
CCC(c1nnnn1Cc1ccccc1)N1CCC(n2c(=O)[nH]c3ccccc32)CC1 (centres undefined)	active: 25.9 µM	
CCOc1ccccc1-n1c(O)c(C=Nc2ccc(N(CC)CC)cc2)c(=O)[nH]c1=O	inconclusive [cytotoxic, single point]	
O=[N+]([O-])c1ccc(N2CCCC(C(F)(F)F)C2)c2ccncc12 (centres undefined)	inconclusive [cytotoxic, partial curve]	
O=c1[nH]c(=O)n(Cc2ccccc2Cl)c(O)c1/C=C1/C=CC=N1	active: 4.11 µM	
CCCCn1nnnc1C(CCc1ccccc1)N1CCC(n2c(=O)[nH]c3ccccc32)CC1 (centres undefined)	inconclusive [cytotoxic, single point]	
O=C1NCN(c2ccccc2)C12CCN(C(c1nnnn1-c1ccc3c(c1)OCCO3)C1CC1)CC2 (centres undefined)	inconclusive [cytotoxic, single point]	
O=c1[nH]c(=O)n(Cc2ccccc2Cl)c(O)c1C=Nc1ccc(F)cc1	inactive	
COc1cc2c(c(OC)c1OC)-c1ccc(O)cc1[C@@H](NC(C)=O)CC2	active: 0.0326 µM	
Cc1cccc(-n2c(O)c(/C=C3/C(c4ccccc4)=Nc4ccccc43)c(=O)[nH]c2=O)c1	active: 16.4 µM	
O=C(NCC1=C(c2ccc3ccccc3c2)C[C@@H]2CC[C@H]1N2Cc1ccco1)c1cccs1	inconclusive [cytotoxic, single point]	
O=[N+]([O-])c1ccc(C(c2ccc([N+](=O)[O-])cc2)c2ccc([N+](=O)[O-])cc2)cc1	inconclusive [cytotoxic, single point]	
COc1ccc(-n2c(/C=C/c3ccc(O)cc3)nc3ccccc3c2=O)cc1	inconclusive [cytotoxic, partial curve]	
COc1cc2c(cc1O)C[C@H]1NCCc3cc4c(c-2c31)OCO4	inconclusive [cytotoxic, partial curve]	
COc1ccc(S(=O)(=O)Nc2cc([N+](=O)[O-])ccc2OC)cc1	active: 13 µM	
CSc1ncc(/C=C2/C(=O)NC(=O)N(C)C2=O)cn1	inactive	
Cn1c(=O)oc2cc(S(=O)(=O)NCCC(=O)NCCc3ccc(Cl)cc3)ccc21	inconclusive [cytotoxic, single point]	
CCCCCSc1cc(O)c(C(CNC)C(C)C)cc1OC (centres undefined)	inconclusive [cytotoxic, single point]	
CCOP(=O)(CCP(=O)(OCC)OCC)OCC.C[CH2][Sn]([Cl])([Cl])[CH2]C	inconclusive [cytotoxic, full curve]	
CSCCC(c1nnnn1C1CCCCC1)N1CCC(n2c(=O)[nH]c3ccccc32)CC1 (centres undefined)	inconclusive [cytotoxic, single point]	
